From US20170355736A1, “MORTALIN PEPTIDES AND ANTIBODIES AND USES THEREOF FOR INHIBITING MORTALIN ACTIVITY AND TREATING A DISEASE ASSOCIATED WITH A PATHOLOGICAL CELL” (Ramot at Tel-Aviv University Ltd., priority 2014, published 2017)
Part of at least one peptide drawing is inferred or uncertain, most often the ends. Some entries repeat one wording, which the source may state once for all of them. Ends that are not written are not given here.

Columns and labels:
[1] = test system: primary B-CLL leukemia cells; test: Direct cell killing of primary leukemia cell preparations, PI flow cytometry; format: cell-based, human; settings: peptides with TAT sequence at C-terminal, 20 hours, 50 µM concentration
Method: (§1) FIG. 8 is a histogram depicting cell death of B-CLL leukemia cells by mortalin peptides. […] Mortalin peptides numbers 2, 7, 8, 10, 14 and 16 and a scrambled control peptide (PC) were tested. […] Following, the cells were labeled with PI and analyzed by Flow Cytometry. Percent of dead cells (PI positive) was calculated.
as §1, with “FIG. 9” for “FIG. 8”
as §1, with “FIG. 10” for “FIG. 8”
as §1, with “FIG. 11” for “FIG. 8”, “leukemia cells and normal mononuclear” for “leukemia”
Blood drawing from B-CLL patients was approved by the Helsinki Committee of Rabin Medical Center, Petach Tikvah, Israel. Peripheral blood was collected with EDTA from three B-CLL patients and from one healthy volunteer who signed a letter of consent (named patients #1, 2, 3 and 4 and “Healthy”). The blood cells were fractionated over Ficoll gradients and mononuclear cells were purified. By cell counting it became clear that >95% of the cells separated from the B-CLL patients (28-107 million cells were purified from each ml blood) were leukemia cells. From the healthy donor, 1.4 million mononuclear cells were purified from each ml blood). The cells were treated for 20 hours with the peptides at […] concentration and cell death was determined by propidium iodide labeling and analysis by flow cytometry. […] It is noted that peptide no.

[2] = test system: K562 cells; test: Complement independent cytotoxicity, Annexin V/PI, FACS; format: cell-based, human; settings: for cells died (Annexin and PI positive): 2 mM peptide, 48 hours; for direct apoptosis in the absence of antibody and complement: 24-48 hours in growth medium
Method: (§2) Raji or K562 cells were treated without (C) or with 2 mM peptides for 48 hours in their culture medium. Then, the cells were labeled with Annexin/PI and analyzed by Flow Cytometry. FIG. 3A—a histogram depicting the percent of dead cells (Annexin and PI positive) as calculated. FIGS. 3B-D—representative images of cells in control (FIG. 3B) and peptide-treated groups [FIG. 3C (treated with peptide no. 14) and FIG. 3D (treated with peptide no. 16)] stained by DAPI and observed under a fluorescence microscope.
(§3) The complement independent cytotoxic effect of the peptides—To address the toxic effect of the peptides as single agents, the present inventor tested the effect of the peptides no. 14 and 16 on K562 and Raji human cancer cells. The cells were incubated with the peptides for 24-48 hours in growth medium and then tested for apoptosis using an Annexin V/PI (Propidium Iodide) staining kit followed by FACS analysis.

[3] = test system: Raji cells; test: as above; format: cell-based, human; settings: for cells died (Annexin and PI positive): 2 mM peptide, 48 hours; for direct apoptosis in the absence of antibody and complement: 24-48 hours in growth medium
Description: as §2, with “Then,” for “Raji or K562 cells were treated without (C) or with 2 mM peptides for 48 hours in their culture medium. Then,”
as §3

[4] = test system: K562 cells; test: Complement-dependent cytotoxicity (CDC), antibody + normal human serum, PI inclusion/FACS; format: cell-based; parameters: key to Effect on CDC: ↑: enhance; ↓: inhibit; ↑↓: effect depends on dose/time; —: no effect; settings: for CDC without preincubation / CDC with preincubation: relative to control without peptide (control CDC = 1.0); for CDC with preincubation: pre-incubated 60 minutes at 37° C.; for cell death of K562 cells induced by antibody (Ab) and complement: in at least one of the settings, with or without pre-incubation; for Effect on CDC: summary of in vitro effects
Method: K562 cells were either pre-incubated with peptides (60 minutes at 37° C.) and then treated with Rabbit anti-K562 polyclonal antiserum (Ab) and normal human serum (as a source for complement) or treated with Ab and complement in presence of the peptide [Ziporen et al. J. Immunol. (2009) 182: 515-21]. Cell death was measured by PI (Propidium Iodide) inclusion and FACS analysis, after 1 hour treatment at 37° C. The effect of the peptides on complement-dependent cytotoxicity—The next objective was to determine which of the peptides could alter cell death and sensitize cancer cells to complement-dependent cytotoxicity (CDC). Thus, cells were incubated with the peptides prior to antibody and complement treatment (denoted herein as pre-incubation) or treated concomitantly with antibody and complement in the presence of the peptides (denoted herein as without pre-incubation). It should be noted that in cases where the peptide was incubated with the cells prior to addition of the antibody and complement (serum) (noted as “preincubation”) cell cytotoxicity begins as complement independent, and then, upon addition of the antibody and complement can continue as complement dependent. On the other hand, when the cells interact with the peptide, antibody and complement without preincubation of the cells and peptide (noted as “without preincubation”), cell cytotoxicity is entirely complement dependent.

[5] = test system: Ramos cells; test: Mitochondrial membrane potential, JC-1 dye, FACS; format: cell-based; settings: 50 μM; 1 hour at 37° C.; relative to cells treated with scrambled peptide (PC)

| Sequence | cell killing effect on primary leukemia cells [1] | cells died (Annexin and PI positive) [2] | direct apoptosis in the absence of antibody and complement [2] | cells died (Annexin and PI positive) [3] | direct apoptosis in the absence of antibody and complement [3] | CDC without preincubation ([4]; 1 mM peptide) | CDC with preincubation ([4]; 5 mM peptide) | cell death of K562 cells induced by antibody (Ab) and complement [4] | Effect on CDC [4] | CDC without preincubation ([4]; 5 mM peptide) | mitochondrial membrane potential (red MFI, JC-1) [5] | CDC with preincubation ([4]; 1 mM peptide) | CDC without preincubation ([4]; 0.1-1 mM peptide) |
| --- | --- | --- | --- | --- | --- | --- | --- | --- | --- | --- | --- | --- | --- |
| FKDQLPADECNKLKEEISKMRELLA [Peptide 16] | cell killing effect | ~40% | induced direct apoptosis | approximately 100% | induced direct apoptosis | 4.0-4.9 (1 mM) | 1.2-3.1 (5 mM) | significantly enhanced cell death | ↑↑ |  |  |  |  |
| MVKNAEKYAEEDR [Peptide 14, MVKNAEKYAEEDR] | cell killing effect | ~40% | induced direct apoptosis | approximately 100% | induced direct apoptosis | 2.3 | 3-4.1 (5 mM) | significantly enhanced cell death | ↑↑ | 1.5 |  |  |  |
| PSQIGAFVLMKMKETAENYL [Peptide 2] | cell killing effect |  |  |  |  | 4.1 (1 mM) |  | significantly enhanced cell death | ↑↓ |  | mitochondrial membrane potential dissipated (red MFI decreased) |  |  |
| RAQFEGIVTDLIRRTIA [Peptide 10, RAQFEGIVTDLIRRTIA] | cell killing effect |  |  |  |  |  | 1.3 | significantly enhanced cell death | ↑↓ | 0.7 |  | 2.0 | 1.0-1.2 |
